# The whole screen tested about 44,000 compounds, of which about 340 (0.77%) were called active. Another 5% or so got no clear call; they are omitted. The call rests on the fitted dose curve; in most records, active means well fitted inhibition curve with a large enough effect; inconclusive means small, poorly fitted or top-dose-only effect; inactive means flat fitted curve, though single readings scatter. The list shows a part of the results.
# Assay: Acumen qHTS Assay for Inhibitors of the mTORC1 Signaling Pathway in MEF (Tsc2-/-, p53-/-) Cells: Sytravon;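 further: plate controls were DMSO for no effect and rapamycin for full effect; nearly all actives have a fitted effect of over 50% in size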
# Conditions: phospho-rpS6 immunofluorescence/PI, 24 h; series mostly up to 38.3 µM; activity change, negative = inhibition: at the top concentration
# Outline: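 Immunofluorescence of rpS6 phosphorylation in Tsc2-/-, p53-/- MEFs after 24 h compound exposure, normalized to propidium iodide signal. Activity is expressed as % positive cells, thresholded with 7.5 nM rapamycin.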
row,SMILES,"activity change, negative = inhibition"
1,COc1cccc(C(=O)NCC(c2ccc(N(C)C)cc2)N2CCc3ccccc32)c1 (stereo not given),inactive: 2.36%
2,CCc1ccccc1NC(=O)Cn1nnc(-c2nc(-c3ccc(C)cc3)no2)c1N,inactive: -7.23%
3,Cc1ccc2c(c1)sc1nc(-c3cc4ccccc4oc3=O)cn12,inactive: -2.56%
4,CCOC(=O)c1ccccc1NC(=O)CN1C(=O)CC(c2ccco2)Sc2ccccc21 (stereo not given),inactive: 2.89%
5,Cc1oc(-c2ccc(Cl)cc2)nc1Cn1c(=O)cc(C)c2c(C)nn(-c3cccc(F)c3)c21,inactive: -17.7%
6,Cc1ccc(C(=O)Nc2ccc(C(=O)OCc3cc(=O)n4nc(C5CC5)sc4n3)cc2)cc1,inactive: 0%
7,CCn1cc(C(=O)N2CCN(c3ccc(F)cc3)CC2)c(=O)c2cc(S(=O)(=O)N3CCOCC3)ccc21,inactive: -16.2%
8,COc1ccc(NC(=O)C(=O)NCC(c2ccc3c(c2)OCO3)N2CCN(C)CC2)cc1 (stereo not given),inactive: 0.448%
9,CCOc1cc(CNC(=O)CCCn2c(=O)c3cccn3c3cccnc32)cc(OCC)c1OCC,inactive: 0.0431%
10,COc1ccc(CCNC(=O)c2cc(Nc3cc(C)cc(C)c3)nc3ccccc23)cc1OC,inactive: -4.1%
11,CC(=O)Nc1cccc(NC(=O)CSc2cn(CC(=O)N(C(C)C)C(C)C)c3ccccc23)c1,inactive: 3.83%
12,COc1ccc(NC(=O)CN2C(=O)COc3ccc(S(=O)(=O)Nc4ccccc4)cc32)cc1OC,inactive: -1.52%
13,O=C(COCc1cc(-c2cccs2)on1)Nc1cccc(Cl)c1Cl,inactive: -3.85%
14,CCN(c1cccc(C)c1)S(=O)(=O)c1ccc2c(c1)NC(=O)CCS2,inactive: 2.09%
15,Cc1c(Cl)cccc1Nc1nn2c(=O)c3ccc(C(=O)NCCc4ccccc4)cc3nc2s1,inactive: -2.95%
16,COc1cccc(CNC(=O)C2CCN(c3nn4c(=O)cc(C)nc4s3)CC2)c1,inactive: 1.72%
17,Cc1cccc(N(CC(=O)NCCSCc2ccc(Cl)cc2)S(C)(=O)=O)c1C,inactive: -4.77%
18,O=C(NC1CC(=O)N(c2ccccc2)C1)c1ccc(Br)o1 (stereo not given),inactive: 1.5%
19,CCOc1ccc(NC(=O)c2cc3c(n(-c4ccc(OC)cc4)c2=O)CC(C)(C)CC3=O)cc1,inactive: 3.23%
20,CC(=O)c1cccc(NC(=O)c2cccn2-c2nnc(N3CCCCC3)s2)c1,inactive: 0%
21,COc1ccccc1Cn1c(CNS(=O)(=O)c2ccccc2Cl)nc2cccnc21,inactive: 3.27%
22,CCOC(=O)Cn1c(=O)oc2cc(S(=O)(=O)N3CCN(c4ccccc4F)CC3)ccc21,inactive: -0.342%
23,CCOC(=O)c1ccc2c(c1)N(CC(=O)Nc1ccc(C)cc1C)C(=O)c1ccccc1S2,inactive: 2.93%
24,CCN(CC)C(=O)Cn1cc(SCC(=O)Nc2ccccc2F)c2ccccc21,inactive: -16.1%

row,SMILES,"activity change, negative = inhibition"
1,COc1ccc(NC(=O)c2nnn(Cc3nc(-c4cc(OC)c(OC)c(OC)c4)oc3C)c2C)cc1,inactive: -9.81%
2,COc1ccc(-c2nc(C(N)=O)c3c(n2)n(-c2ccccc2OC)c(=O)n3C)c(OC)c1,inactive: 0.251%
3,O=C(c1ccc2c(c1)N(Cc1ccc(Cl)cc1)C(=O)c1ccccc1S2=O)N1CCN(c2ccccc2F)CC1 (stereo not given),inactive: 2.02%
4,O=C(c1ccc(F)cc1)N1CCC(c2nc3ccccc3o2)CC1,inactive: -6.69%
5,CSc1cccc(NC(=O)C2CCN(c3ncnc4c3nc3n4CCCCC3)CC2)c1,inactive: 4.22%
6,CCOc1ccccc1NC(=O)C(NS(=O)(=O)c1ccc2c(c1)CCC(=O)N2)c1ccccc1 (stereo not given),inactive: -0.821%
7,O=C(NC1CCCCCC1)c1cc2c(Cl)nc3ccccc3c2s1,inactive: 0.401%
8,CC(C)NC(=O)CC(=O)Nc1ccc2nc3n(c(=O)c2c1)CCCCC3,inactive: 7.27%
9,COc1ccc(CNC(=O)c2ccc3c(c2)N(C)C(=O)C2CCCCN32)cc1OC (stereo not given),inactive: 2.16%
10,CCOC(=O)c1ccc(NC(=O)C2=C(C)Nc3nc(SCc4ccc(Cl)cc4)nn3C2c2ccc(C)cc2)cc1 (stereo not given),inactive: 2.57%
11,CCCCOc1ccc(C(=O)N2CCC(c3nc4ccccc4o3)CC2)cc1,inactive: -1.05%
12,CCOc1ccc(CC(=O)NCCc2csc(-c3ccc(C(F)(F)F)cc3)n2)cc1,inactive: -17.1%
13,Cc1nn(C(=O)COc2ccccc2)c(C)c1Sc1ccccc1,inactive: -23%
14,CC1CCN(C(=O)CN2CCSc3ccccc32)CC1,inactive: 27.2%
15,CC(NC(=O)c1nn(C)c2c1CSc1ccccc1-2)c1ccccc1 (stereo not given),inactive: -8.98%
16,O=C(Nc1ccc(SC(F)F)cc1)c1cc(-c2cccs2)on1,inactive: -1.26%
17,COc1ccc(OC)c(NC(=O)CSc2nc(-c3ccccc3C)nc3cc(=O)[nH]n23)c1,inactive: -1.34%
18,COC(=O)c1sc2cccc(F)c2c1S(=O)(=O)N1CCN(c2ccccc2OC)CC1,inactive: -17.5%
19,Cc1ccc(-c2cc(NC(=O)C(C)Oc3ccc(C)c(C)c3)on2)cc1 (stereo not given),inactive: -2.04%
20,O=C(NCCc1ccccc1)c1ccc2c(c1)CCN2S(=O)(=O)c1ccc(Br)cc1,inactive: -1.46%
21,CC(=O)c1cccc(NC(=O)CCCN2C(=O)COc3ccc(C)cc32)c1,inactive: -10.1%
22,CCOc1ccc(C(=O)Nc2nnc(S(=O)(=O)N(CC)c3ccccc3C)s2)cc1,inactive: 2.56%
23,CCNc1nc2c(c(=O)[nH]c(=O)n2C)n1CC(O)COc1ccc(Cl)cc1Cl (stereo not given),inactive: -26.6%
24,COc1cc(OC)cc(C(=O)N2CCC(c3ccncc3)CC2)c1,inactive: -7.98%

row,SMILES,"activity change, negative = inhibition"
1,O=C(CCS(=O)(=O)c1cccs1)Nc1ccc(C(=O)Nc2cccc(Cl)c2)cc1,inactive: -5.15%
2,O=C(Cc1ccccc1)Nc1c(C(=O)N2CCN(c3ccc(F)cc3)CC2)oc2ccccc12,inactive: -12.2%
3,COc1ccc(CNc2ccc3cc(S(=O)(=O)N4CCCCC4)ccc3n2)cc1,inactive: -4.85%
4,Cc1ccc(C)c(NC(=O)CN2C(=O)CSc3nc(C)cc(C)c32)c1,inactive: -4.04%
5,Cc1ccc(CNC(=O)CN(c2ccc(C(C)C)cc2)S(=O)(=O)c2c(C)n[nH]c2C)cc1,inactive: 7.1%
6,COc1cccc(NC(=O)CN2CCCN(S(=O)(=O)c3ccc(Br)cc3)CC2)c1,inactive: 2.19%
7,COc1ccc(Cn2ccnc2SCC(=O)Nc2ccc(C)cc2C)cc1,inactive: 2.27%
8,CC(C)(C)CC(=O)Nc1nnc2n1CCS2,inactive: -9.32%
9,CCCC(=O)NCC(c1ccc2c(c1)OCO2)N1CCOCC1 (stereo not given),inactive: 3.77%
10,O=C(COc1ccc(Cl)cc1)Nc1ccccc1C(=O)OCc1cc(=O)n2ccsc2n1,inactive: 0%
11,COc1ccccc1CNC(=O)CN1C(=O)CSc2c1c(C)nn2-c1ccccc1,inactive: -21.1%
12,CC(=O)c1ccc(NS(=O)(=O)c2cc3[nH]c(=O)c(=O)[nH]c3cc2C)cc1,inactive: 0.0432%
13,Cc1ccc(C)c(N2CCN(C(=O)Cn3ncc4c(=O)oc5ccc(C)cc5c43)CC2)c1,inactive: -1.3%
14,COc1ccc(S(=O)(=O)NCCc2nnc3ccc(SCC(=O)Nc4ccc(C(F)(F)F)cc4)nn23)cc1,inactive: 0.101%
15,CCc1ccc(CSc2nc(-c3ccccc3OC)nc3c2Cc2c(CO)cnc(C)c2O3)cc1,inactive: 3.83%
16,CCCn1c(=N)c(C(=O)NCc2cccnc2)cc2c(=O)n3cc(C)ccc3nc21,inactive: 5.1%
17,COc1cccc(/C=C/c2nc(C#N)c(N3CCCCC3)o2)c1,inactive: -0.67%
18,O=C(c1cnc2cc(-c3ccccc3)nn2c1)c1cc([N+](=O)[O-])ccc1O,inactive: -4.69%
19,O=C(C1CCCN(S(=O)(=O)c2cccc3nonc23)C1)N1CCN(c2cccc(Cl)c2)CC1 (stereo not given),inactive: -6.3%
20,Cc1ccccc1Cn1nc(C)c(NC(=O)c2cc(-c3ccc(F)cc3)on2)c1C,inactive: 2.58%
21,CCOc1ccccc1CNc1ncnc2c1nc1n2CCCC1,inactive: -9.18%
22,CSc1ccc(CCNC(=O)CCc2c(C)nc3c(-c4ccccc4)c(C)nn3c2C)cc1,inactive: -18.7%
23,COC(=O)c1ccc2c(=O)n(CCCCCC(=O)NCc3ccccc3)c(=O)[nH]c2c1,inactive: -0.834%
24,Cc1cccc(-n2c3c(cc(-c4nc(-c5ccc(Cl)cc5)cs4)c2=O)C(=O)CC(C)(C)C3)c1,inactive: 4.69%

row,SMILES,"activity change, negative = inhibition"
1,O=C(CN1CCSc2ccccc21)N1CCN(c2ccccc2)CC1,inactive: 6.01%
2,CCn1cc(C2N3CC4(CC)CN2CC(CC)(C3)C4=O)c2ccccc21 (stereo not given),inactive: 2.99%
3,CCOC(=O)c1c(NC(=O)/C=C/c2ccc(OC)c(OC)c2)sc(C(C)=O)c1C,inactive: -4%
4,CCc1ccc(NC(=O)c2cc(-c3cccs3)on2)cc1,inactive: -3.06%
5,CCOC(=O)c1cnc2cc(C(F)(F)F)ccc2c1N1CCN(c2ccc(F)cc2)CC1,inactive: -2.06%
6,COc1ccccc1CNC(=O)C1CCCN(c2nn3cc(-c4ccc(F)cc4)nc3s2)C1 (stereo not given),inactive: 0.133%
7,CCOc1ccc(CCNC(=O)CS(=O)Cc2nc(-c3ccc(C)cc3)oc2C)cc1OCC (stereo not given),inactive: 0.116%
8,COC(=O)c1ccccc1NC(=O)CSc1nc(-c2ccccc2)cc(C(F)(F)F)n1,inactive: -3.5%
9,CCOC(=O)c1c(C)[nH]c(C)c1S(=O)(=O)N1CCC(C(=O)Nc2ccc(F)cc2F)CC1,inactive: 0.724%
10,CC(=O)c1ccc(NC(=O)c2ccc3c(c2)N(Cc2cccc(Cl)c2)C(=O)c2ccccc2S3(=O)=O)cc1,inactive: -4.11%
11,COc1ccc(CNC(=O)Cn2ccc3cc(S(=O)(=O)N4CCCCC4)ccc32)c(OC)c1,inactive: -10%
12,Cc1ccc(NC(=O)CN2CCCN(Cc3ccccc3Cl)S2(=O)=O)c(C)c1,inactive: -0.439%
13,COc1ccccc1CNC(=O)CCc1c(C)nc2cc(-c3ccccc3OC)nn2c1C,inactive: -9.64%
14,Cc1cc(Cl)ccc1NC(=O)CN1C(=O)CSc2ccc(S(=O)(=O)N(C)C)cc21,inactive: -2.34%
15,CCOCCc1nn2c(=O)cc(COC(=O)COc3ccccc3Cl)nc2s1,inactive: -14.5%
16,CCOc1ccc(C2c3[nH]c4ccccc4c3CCN2C(=O)Cc2cccc(OCC)c2OCC)cc1 (stereo not given),inactive: -11.2%
17,Cc1ccccc1Cn1nnc2c(=O)[nH]c(C3CCN(C(=O)c4ccccc4)CC3)nc21,inactive: 4.51%
18,CCOC(=O)c1cnc2ccc(C(=O)OC)cc2c1Nc1ccccc1CC,inactive: -24.7%
19,Cc1cc(C)cc(-n2ccnc2SCC(=O)Nc2nc3ccccc3s2)c1,inactive: -1.28%
20,COc1ccc(-c2nc3sc(CCNC(=O)c4cccc(C(F)(F)F)c4)c(C)n3n2)cc1,inactive: 3.14%
21,CCC(C(=O)NCc1ccccc1OC)n1nc(C)n2c(cc3sccc32)c1=O (stereo not given),inactive: -6.02%
22,CCOC(=O)c1c(S(=O)(=O)NCC(=O)Nc2ccc(C)c(Cl)c2)c(C)n(C)c1C,inactive: 0.548%
23,CC(C)(C)n1cnc2cc(NCc3ccccc3Cl)ccc21,inactive: -11.9%
